Results as given in the supplement of paper PMC8728848.
Some of the results follow.

Legend:
Test in all cases: glycan array binding signal (z-score within array); higher = stronger binding
Conditions in all cases: glycan notation: IUPAC condensed, linker removed
[1] = molecular target: GlcNAc(b1-2)Gal(b1-3)GalNAc
Method in brief: (§1)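 Glycan array data were curated from 3228 arrays in the Consortium for Functional Glycomics database and kept only where the protein sequence was available. Glycan names were converted to IUPAC-condensed notation, and columns mapping to the same glycan were averaged. The binding signal is a within-array Z-score, averaged across arrays of the same protein sequence at different concentrations or buffers and across linkers. Negative Z-scores can be read as non-binding.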

[2] = molecular target: GlcNAc(b1-2)Man(a1-3)[GlcNAc(b1-2)Man(a1-6)]Man(b1-4)GlcNAc(b1-4)GlcNAc
Method in brief: as §1

[3] = molecular target: GlcNAc(b1-2)Man(a1-3)[GlcNAc(b1-2)Man(a1-6)]Man(b1-4)GlcNAc(b1-4)[Fuc(a1-6)]GlcNAc
Method in brief: as §1

[4] = molecular target: GlcNAc(b1-2)Man(a1-3)[GlcNAc(b1-4)][GlcNAc(b1-2)Man(a1-6)]Man(b1-4)GlcNAc(b1-4)GlcNAc
Method in brief: as §1

[5] = molecular target: GlcNAc(b1-2)Man(a1-3)[GlcNAc(b1-4)][GlcNAc(b1-2)Man(a1-6)]Man(b1-4)GlcNAc(b1-4)[Fuc(a1-6)]GlcNAc
Method in brief: as §1

[6] = molecular target: GlcNAc(b1-2)[GlcNAc(b1-4)]Man(a1-3)[GlcNAc(b1-2)Man(a1-6)]Man(b1-4)GlcNAc(b1-4)GlcNAc
Method in brief: as §1

[7] = molecular target: GlcNAc(b1-2)[GlcNAc(b1-4)]Man(a1-3)[GlcNAc(b1-4)][GlcNAc(b1-2)Man(a1-6)]Man(b1-4)GlcNAc(b1-4)GlcNAc
Method in brief: as §1

[8] = molecular target: GlcNAc(b1-2)[GlcNAc(b1-4)]Man(a1-3)[GlcNAc(b1-4)][GlcNAc(b1-2)[GlcNAc(b1-6)]Man(a1-6)]Man(b1-4)GlcNAc(b1-4)GlcNAc
Method in brief: as §1

[9] = molecular target: GlcNAc(b1-2)[GlcNAc(b1-4)]Man(a1-3)[GlcNAc(b1-4)][GlcNAc(b1-2)[GlcNAc(b1-6)]Man(a1-6)]Man(b1-4)GlcNAc(b1-4)[Fuc(a1-6)]GlcNAc
Method in brief: as §1

[10] = molecular target: GlcNAc(b1-2)[GlcNAc(b1-6)]Man(a1-6)[GlcNAc(b1-2)Man(a1-3)]Man(b1-4)GlcNAc(b1-4)GlcNAc
Method in brief: as §1

[11] = molecular target: GlcNAc(b1-2)[GlcNAc(b1-6)]Man(a1-6)[GlcNAc(b1-2)Man(a1-3)]Man(b1-4)GlcNAc(b1-4)[Fuc(a1-6)]GlcNAc
Method in brief: as §1

[12] = molecular target: GlcNAc(b1-2)[GlcNAc(b1-6)]Man(a1-6)[GlcNAc(b1-4)][GlcNAc(b1-2)Man(a1-3)]Man(b1-4)GlcNAc(b1-4)GlcNAc
Method in brief: as §1

[13] = molecular target: GlcNAc(b1-3)Fuc
Method in brief: as §1

[14] = molecular target: GlcNAc(b1-3)Gal
Method in brief: as §1

[15] = molecular target: GlcNAc(b1-3)Gal(b1-3)GalNAc
Method in brief: as §1

[16] = molecular target: GlcNAc(b1-3)Gal(b1-4)Glc
Method in brief: as §1

[17] = molecular target: GlcNAc(b1-3)Gal(b1-4)GlcNAc
Method in brief: as §1

[18] = molecular target: GlcNAc(b1-3)Gal(b1-4)GlcNAc(b1-2)Man(a1-3)[GlcNAc(b1-3)Gal(b1-4)GlcNAc(b1-2)Man(a1-6)]Man(b1-4)GlcNAc(b1-4)GlcNAc
Method in brief: as §1

[19] = molecular target: GlcNAc(b1-3)Gal(b1-4)GlcNAc(b1-2)Man(a1-3)[GlcNAc(b1-3)Gal(b1-4)GlcNAc(b1-2)Man(a1-6)]Man(b1-4)GlcNAc(b1-4)[Fuc(a1-6)]GlcNAc
Method in brief: as §1

[20] = molecular target: GlcNAc(b1-3)Gal(b1-4)GlcNAc(b1-2)[GlcNAc(b1-3)Gal(b1-4)GlcNAc(b1-6)]Man(a1-6)[GlcNAc(b1-3)Gal(b1-4)GlcNAc(b1-2)Man(a1-3)]Man(b1-4)GlcNAc(b1-4)GlcNAc
Method in brief: as §1

[21] = molecular target: GlcNAc(b1-3)Gal(b1-4)GlcNAc(b1-3)Gal(b1-4)GlcNAc
Method in brief: as §1

[22] = molecular target: GlcNAc(b1-3)Gal(b1-4)GlcNAc(b1-3)Gal(b1-4)GlcNAc(b1-2)Man(a1-3)[GlcNAc(b1-3)Gal(b1-4)GlcNAc(b1-3)Gal(b1-4)GlcNAc(b1-2)Man(a1-6)]Man(b1-4)GlcNAc(b1-4)GlcNAc
Method in brief: as §1

[23] = molecular target: GlcNAc(b1-3)Gal(b1-4)GlcNAc(b1-3)Gal(b1-4)GlcNAc(b1-2)Man(a1-3)[GlcNAc(b1-3)Gal(b1-4)GlcNAc(b1-3)Gal(b1-4)GlcNAc(b1-2)Man(a1-6)]Man(b1-4)GlcNAc(b1-4)[Fuc(a1-6)]GlcNAc
Method in brief: as §1

[24] = molecular target: GlcNAc(b1-3)Gal(b1-4)GlcNAc(b1-3)Gal(b1-4)GlcNAc(b1-2)[GlcNAc(b1-3)Gal(b1-4)GlcNAc(b1-3)Gal(b1-4)GlcNAc(b1-6)]Man(a1-6)[GlcNAc(b1-3)Gal(b1-4)GlcNAc(b1-3)Gal(b1-4)GlcNAc(b1-2)Man(a1-3)]Man(b1-4)GlcNAc(b1-4)[Fuc(a1-6)]GlcNAc
Method in brief: as §1

[25] = molecular target: GlcNAc(b1-3)Gal(b1-4)GlcNAc(b1-3)Gal(b1-4)GlcNAc(b1-3)Gal(b1-4)GlcNAc(b1-2)Man(a1-3)[GlcNAc(b1-3)Gal(b1-4)GlcNAc(b1-3)Gal(b1-4)GlcNAc(b1-3)Gal(b1-4)GlcNAc(b1-2)Man(a1-6)]Man(b1-4)GlcNAc(b1-4)GlcNAc
Method in brief: as §1

[26] = molecular target: GlcNAc(b1-3)Gal(b1-4)GlcNAc(b1-3)Gal(b1-4)GlcNAc(b1-3)Gal(b1-4)GlcNAc(b1-2)Man(a1-3)[GlcNAc(b1-3)Gal(b1-4)GlcNAc(b1-3)Gal(b1-4)GlcNAc(b1-3)Gal(b1-4)GlcNAc(b1-2)Man(a1-6)]Man(b1-4)GlcNAc(b1-4)[Fuc(a1-6)]GlcNAc
Method in brief: as §1

[27] = molecular target: GlcNAc(b1-3)Gal(b1-4)GlcNAc(b1-3)Gal(b1-4)GlcNAc(b1-3)Gal(b1-4)GlcNAc(b1-2)[GlcNAc(b1-3)Gal(b1-4)GlcNAc(b1-3)Gal(b1-4)GlcNAc(b1-3)Gal(b1-4)GlcNAc(b1-6)]Man(a1-6)[GlcNAc(b1-3)Gal(b1-4)GlcNAc(b1-3)Gal(b1-4)GlcNAc(b1-3)Gal(b1-4)GlcNAc(b1-2)Man(a1-3)]Man(b1-4)GlcNAc(b1-4)[Fuc(a1-6)]GlcNAc
Method in brief: as §1

[28] = molecular target: GlcNAc(b1-3)Gal(b1-4)GlcNAc(b1-3)Gal(b1-4)GlcNAc(b1-3)Gal(b1-4)GlcNAc(b1-3)Gal(b1-4)GlcNAc(b1-2)Man(a1-3)[GlcNAc(b1-3)Gal(b1-4)GlcNAc(b1-3)Gal(b1-4)GlcNAc(b1-3)Gal(b1-4)GlcNAc(b1-3)Gal(b1-4)GlcNAc(b1-2)Man(a1-6)]Man(b1-4)GlcNAc(b1-4)GlcNAc
Method in brief: as §1

[29] = molecular target: GlcNAc(b1-3)Gal(b1-4)GlcNAc(b1-3)Gal(b1-4)GlcNAc(b1-3)Gal(b1-4)GlcNAc(b1-3)Gal(b1-4)GlcNAc(b1-2)Man(a1-3)[GlcNAc(b1-3)Gal(b1-4)GlcNAc(b1-3)Gal(b1-4)GlcNAc(b1-3)Gal(b1-4)GlcNAc(b1-3)Gal(b1-4)GlcNAc(b1-2)Man(a1-6)]Man(b1-4)GlcNAc(b1-4)[Fuc(a1-6)]GlcNAc
Method in brief: as §1

[30] = molecular target: GlcNAc(b1-3)Gal(b1-4)GlcNAc(b1-3)Gal(b1-4)GlcNAc(b1-3)Gal(b1-4)GlcNAc(b1-3)Gal(b1-4)GlcNAc(b1-2)[GlcNAc(b1-3)Gal(b1-4)GlcNAc(b1-3)Gal(b1-4)GlcNAc(b1-3)Gal(b1-4)GlcNAc(b1-3)Gal(b1-4)GlcNAc(b1-6)]Man(a1-6)[GlcNAc(b1-3)Gal(b1-4)GlcNAc(b1-3)Gal(b1-4)GlcNAc(b1-3)Gal(b1-4)GlcNAc(b1-3)Gal(b1-4)GlcNAc(b1-2)Man(a1-3)]Man(b1-4)GlcNAc(b1-4)[Fuc(a1-6)]GlcNAc
Method in brief: as §1

[31] = molecular target: GlcNAc(b1-3)Gal(b1-4)GlcNAc(b1-3)Gal(b1-4)GlcNAc(b1-3)GalNAc
Method in brief: as §1

[32] = molecular target: GlcNAc(b1-3)Gal(b1-4)GlcNAc(b1-3)GalNAc
Method in brief: as §1

[33] = molecular target: GlcNAc(b1-3)Gal(b1-4)GlcNAc(b1-3)[GlcNAc(b1-3)Gal(b1-4)GlcNAc(b1-3)]GalNAc
Method in brief: as §1

[34] = molecular target: GlcNAc(b1-3)Gal(b1-4)GlcNAc(b1-6)[Gal(b1-3)]GalNAc
Method in brief: as §1

[35] = molecular target: GlcNAc(b1-3)Gal(b1-4)GlcNAc(b1-6)[GlcNAc(b1-3)Gal(b1-3)]GalNAc
Method in brief: as §1

[36] = molecular target: GlcNAc(b1-3)Gal(b1-4)GlcNAc(b1-6)[GlcNAc(b1-3)]Gal(b1-4)GlcNAc
Method in brief: as §1

[37] = molecular target: GlcNAc(b1-3)GalNAc
Method in brief: as §1

[38] = molecular target: GlcNAc(b1-3)Man
Method in brief: as §1

[39] = molecular target: GlcNAc(b1-3)[GlcNAc(b1-4)][GlcNAc(b1-6)]GlcNAc
Method in brief: as §1

[40] = molecular target: GlcNAc(b1-3)[GlcNAc(b1-6)]Gal(b1-4)GlcNAc
Method in brief: as §1

[41] = molecular target: GlcNAc(b1-3)[GlcNAc(b1-6)]GalNAc
Method in brief: as §1

[42] = molecular target: GlcNAc(b1-4)Gal(b1-4)GlcNAc
Method in brief: as §1

[43] = molecular target: GlcNAc(b1-4)GlcNAc
Method in brief: as §1

[44] = molecular target: GlcNAc(b1-4)GlcNAc(b1-4)GlcNAc
Method in brief: as §1

[45] = molecular target: GlcNAc(b1-4)GlcNAc(b1-4)GlcNAc(b1-4)GlcNAc(b1-4)GlcNAc
Method in brief: as §1

B1: CBM13 2a (Mycobacterium tuberculosum), P64849 (protein)
chain: DGPVQLKSRLGDVCLDAPSGSWFSPLVINPCNGTDFQRWNLTDDRQVESVAFPGECVNIGNALWARLQPCVNWISQHWTVQPDGLVKSDLDACLTVLGGPDPGTWVSTRWCDPNAPDQQWDSVPLEHHHHHH
glycan array binding signal (z-score) [1]: -0.328 | glycan array binding signal (z-score) [2]: -0.249 | glycan array binding signal (z-score) [3]: -0.038 | glycan array binding signal (z-score) [4]: -0.458 | glycan array binding signal (z-score) [5]: -0.311 | glycan array binding signal (z-score) [6]: -0.127 | glycan array binding signal (z-score) [7]: -0.318 | glycan array binding signal (z-score) [8]: -0.276 | glycan array binding signal (z-score) [9]: -0.406 | glycan array binding signal (z-score) [10]: 0.094 | glycan array binding signal (z-score) [11]: -0.254 | glycan array binding signal (z-score) [12]: -0.256 | glycan array binding signal (z-score) [13]: -0.33 | glycan array binding signal (z-score) [14]: -0.226 | glycan array binding signal (z-score) [15]: -0.175 | glycan array binding signal (z-score) [16]: -0.218 | glycan array binding signal (z-score) [17]: -0.241 | glycan array binding signal (z-score) [18]: -0.364 | glycan array binding signal (z-score) [19]: 0.006 | glycan array binding signal (z-score) [20]: 0.452 | glycan array binding signal (z-score) [21]: -0.266 | glycan array binding signal (z-score) [22]: 2.24 | glycan array binding signal (z-score) [23]: -0.151 | glycan array binding signal (z-score) [24]: 0.312 | glycan array binding signal (z-score) [25]: 0.109 | glycan array binding signal (z-score) [26]: -0.087 | glycan array binding signal (z-score) [27]: 0.03 | glycan array binding signal (z-score) [28]: -0.137 | glycan array binding signal (z-score) [29]: -0.169 | glycan array binding signal (z-score) [30]: 0.303 | glycan array binding signal (z-score) [31]: 2.54 | glycan array binding signal (z-score) [32]: -0.396 | glycan array binding signal (z-score) [33]: -0.326 | glycan array binding signal (z-score) [34]: -0.18 | glycan array binding signal (z-score) [35]: -0.173 | glycan array binding signal (z-score) [36]: -0.195 | glycan array binding signal (z-score) [37]: -0.188 | glycan array binding signal (z-score) [38]: -0.274 | glycan array binding signal (z-score) [39]: -0.389 | glycan array binding signal (z-score) [40]: -0.462 | glycan array binding signal (z-score) [41]: -0.338 | glycan array binding signal (z-score) [42]: -0.553 | glycan array binding signal (z-score) [43]: -0.282 | glycan array binding signal (z-score) [44]: -0.313 | glycan array binding signal (z-score) [45]: -0.213
